The campaign covered roughly 310,000 compounds. About 14,000 (4.5%) showed an effect of 50% or more. Effects have a minus sign here. The list shows a part of the results.
These molecules were tested against human ether-à-go-go-related gene (hERG) potassium channel (human, UniProt Q12809) (assay: primary screen, population patch clamp on CHO cells stably expressing hERG).
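Note: peak tail current of the secondary pulse compared with the same well before compound.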

human ether-à-go-go-related gene (hERG) potassium channel, sequence (Q12809 whole entry, looked up): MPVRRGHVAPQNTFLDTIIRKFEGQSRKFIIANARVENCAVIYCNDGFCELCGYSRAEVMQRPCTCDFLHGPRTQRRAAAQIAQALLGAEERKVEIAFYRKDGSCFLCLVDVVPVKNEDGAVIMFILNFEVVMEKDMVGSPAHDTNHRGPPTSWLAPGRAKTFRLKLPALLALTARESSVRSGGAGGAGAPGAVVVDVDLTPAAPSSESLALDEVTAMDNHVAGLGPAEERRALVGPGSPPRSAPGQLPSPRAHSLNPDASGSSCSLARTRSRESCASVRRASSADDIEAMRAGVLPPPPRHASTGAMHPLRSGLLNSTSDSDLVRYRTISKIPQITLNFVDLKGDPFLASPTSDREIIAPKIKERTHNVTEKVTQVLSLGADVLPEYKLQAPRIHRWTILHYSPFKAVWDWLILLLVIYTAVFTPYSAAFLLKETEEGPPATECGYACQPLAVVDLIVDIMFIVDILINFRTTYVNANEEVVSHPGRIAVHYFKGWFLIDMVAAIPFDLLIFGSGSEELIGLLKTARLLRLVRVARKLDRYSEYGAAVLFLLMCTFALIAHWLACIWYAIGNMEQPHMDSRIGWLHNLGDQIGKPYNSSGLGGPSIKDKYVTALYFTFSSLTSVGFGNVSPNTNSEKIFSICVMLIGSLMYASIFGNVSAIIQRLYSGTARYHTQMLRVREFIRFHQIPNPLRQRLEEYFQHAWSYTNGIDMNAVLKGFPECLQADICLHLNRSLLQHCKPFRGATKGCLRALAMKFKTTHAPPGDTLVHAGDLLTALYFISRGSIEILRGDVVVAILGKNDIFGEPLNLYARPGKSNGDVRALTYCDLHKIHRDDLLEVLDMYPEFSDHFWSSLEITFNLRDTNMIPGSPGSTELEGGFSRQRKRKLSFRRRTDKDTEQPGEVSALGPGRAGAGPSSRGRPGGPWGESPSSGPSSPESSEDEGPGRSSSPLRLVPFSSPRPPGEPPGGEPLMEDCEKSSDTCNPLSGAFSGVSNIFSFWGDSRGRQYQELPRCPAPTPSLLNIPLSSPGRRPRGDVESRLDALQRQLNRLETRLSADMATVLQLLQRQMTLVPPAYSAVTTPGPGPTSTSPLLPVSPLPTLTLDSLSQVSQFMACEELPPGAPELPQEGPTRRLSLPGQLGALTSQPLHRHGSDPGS

Row | Compound | hERG current change (%, negative = inhibition) at 10uM [%]
1 | O=C1C2C3C=CC(C4CC34)C2C(=O)N1/N=C/c1ccc(-c2ccccc2[N+](=O)[O-])o1 (centres unmarked) | -49.8
2 | O=C(c1ccco1)N1CCN(Cc2nnc(-c3ccccc3F)o2)CC1 | 9.67
3 | CCCC(=O)C1=C(SCC)CC(C)(C)C(C(=O)OC)C1=O (centres unmarked) | -11.6
4 | CCOC(=O)c1cc([N+](=O)[O-])sc1N | 2.1
5 | Cc1nn(C)cc1C1Nc2ccccc2C(=O)N1O (centres unmarked) | 22.6
6 | COCc1cc(SC2CCCCC2)nc(C)n1 | 0.767
7 | COc1ccc(NC(=O)c2cn(CCC#N)nc2-c2cccs2)cc1 | -11.3
8 | CC(C)(C)c1ccccc1NC(=S)NC1CCCC1 | 1.41
9 | CCC(C)c1ccc(NC(=O)CSc2nncn2N)cc1 (centres unmarked) | -27.5
10 | Cc1cccc(NC(=O)CCN2C(=O)C3C4CCC(C4)C3C2=O)c1C (centres unmarked) | 0.845
11 | Cc1cc(NC(=O)c2ccc(NC(=O)C3CCCO3)cc2)ccc1Br (centres unmarked) | 8.57
12 | CCOC(=O)N1CCN(c2nc3c(C)cccn3c(=O)c2C=O)CC1 | -9.2
13 | COC(=O)C(=Cc1ccc(OCc2ccc([N+](=O)[O-])cc2)c(OC)c1)C(=O)OC | 16.1
14 | COc1ccc(C2(C(=O)Nc3ccc(C(=O)O)cc3)CCOCC2)cc1 | 9.95
15 | Cc1cccc2nc(-c3ccco3)c(Nc3ccc4c(c3)OCCO4)n12 | 3.98
16 | O=C(Nc1ccccc1)Nc1n[nH]c2nnc(-c3ccccc3)c(-c3ccccc3)c12 | -13.4
17 | O=C(O)c1cc(NN=C2CCN(Cc3ccccc3)CC2)ccc1Cl | 3.42
18 | CC(C)(O)C(=O)NN(C(=O)c1ccccc1)c1ccc2ccccc2c1 | 6.71
19 | CCc1cc(C(=O)Nc2cc(S(=O)(=O)N(C)C)ccc2C)sc1C | -16.9

Row | Compound | hERG current change (%, negative = inhibition) at 10uM [%]
20 | O=C(CCCCCNC(=O)c1ccccc1)C[N+](=O)[O-] | 10.8
21 | O=C(NNC(=O)c1cc(Br)c(Br)s1)c1ccncc1 | -3.41
22 | CCN(CC)CCn1cnc2c1c(=O)n(CCOC(=O)c1cc(OC)c(OC)c(OC)c1)c(=O)n2C.Cl | -60.3
23 | CCc1cccc2c(/C=N/NC(=O)c3cccc(S(=O)(=O)Nc4ccccc4Cl)c3)c[nH]c12 | 14.6
24 | O=c1cc(NC2CCCCCC2)[nH]c(=O)[nH]1 | 4.69
25 | O=C(NCc1ccccc1)NC12CC3CC(CC(C3)C1)C2 | 9.64
26 | COc1cccc(Nc2nc(-c3cccs3)nc3ccccc23)c1 | 9.19
27 | COc1ccc(NC(=O)CSc2nnc(C3CCCCC3)n2N)cc1OC | 21.9
28 | CC(=O)Oc1ccc(/C=C(\NC(=O)c2ccco2)C(=O)NCc2ccco2)cc1 | -52
29 | Cc1ccc(S(=O)(=O)NCCCn2ccnc2)cc1C(=O)NC(C)C | -1.56
30 | Cc1ccc(-n2nc(C)c3onc(C)c3c2=O)cc1 | 6.89
31 | O=C(c1ccc(Cl)cc1)N1CCCC(C(=O)N2CCN(c3ccccc3)CC2)C1 (centres unmarked) | -37.2
32 | CCCOc1ccc(CC(=O)N/N=C\c2ccc(F)cc2)cc1 | 5.63
33 | O=C(NCc1ccccc1)c1onc(CSc2ccccc2)c1C(=O)NCC1CC1 | -33.4
34 | COc1ccc(C(=O)Nc2cc(Cl)ccc2C(=O)O)cc1 | 24.7
35 | CC(C)Cn1c(SCC(=O)Nc2cc(Cl)c(Cl)cc2Cl)nc(O)cc1=O | 10.1
36 | O=C(COC(=O)/C=C/c1ccco1)NCc1ccccc1Cl | 17.7
37 | O=C(NNS(=O)(=O)c1ccc(F)cc1)c1ccccc1O | 12.7
38 | O=c1c(Cl)c(N/N=C/c2ccc(Cl)cc2)cnn1-c1ccccc1 | 2.19

Row | Compound | hERG current change (%, negative = inhibition) at 10uM [%]
39 | Cc1ccc(S(=O)(=O)N2CCOC23CCN(C(=O)c2cc(Cl)ccc2Cl)CC3)cc1 | -47.6
40 | CCCCCCn1nc(C(=O)N(CC(C)C)c2c(N)n(CCCC)c(=O)[nH]c2=O)c2ccccc2c1=O | -51.9
41 | COCCn1nnnc1C(c1ccccn1)N1CCN(c2cc(C)ccc2C)CC1.Cl (centres unmarked) | -29.1
42 | COc1ccc(C)cc1NC(=O)c1ccc(OC(F)F)cc1 | -24.3
43 | COC(=O)c1cc(C(=O)Nc2ccc(Cl)cn2)cc([N+](=O)[O-])c1 | -19
44 | COc1ccccc1CN1CC(=O)N2CSC[C@H]2C1=O | 10.3
45 | CCOc1ccc(C(=O)NCC(=O)N2CCCC2)cc1 | 7.26
46 | Cc1occc1-c1nnc(SCc2nnc(-c3ccc(Cl)cc3)o2)n1C | -43.1
47 | COc1ccccc1NC(=O)CSCc1cc(=O)n2ccsc2n1 | 13.3
48 | Cc1ccc(C(c2ccc(C)o2)c2cccc([N+](=O)[O-])c2O)o1 | -6.66
49 | CN1CCN(C(=O)c2cnn(-c3ccccc3)c2NC(=O)c2ccccc2Br)CC1 | 3.72
50 | C/C(=N\NC(=O)c1ccc(NS(=O)(=O)c2cccs2)cc1)c1ccc(C(C)(C)C)cc1 | 7.41
51 | O=C1CC(=C2c3ccccc3-c3ccccc32)C(=O)N1CCN1CCN(c2cccc(Cl)c2)CC1 | 3.74
52 | COc1ccccc1CNC(=O)Cc1ccccc1 | 7.23
53 | CC12COC3(P(=O)(c4ccccc4)c4ccccc4)CC1CCC23CP(=O)(c1ccccc1)c1ccccc1 (centres unmarked) | -38.2
54 | Cc1ccc(OC(C)C(=O)Nc2ccc3c(c2)n(C)c(=O)n3C)cc1C (centres unmarked) | 7.07
55 | O=C(NCCCN1CCOCC1)c1ccc2c(c1)N(Cc1cccc(F)c1)C(=O)c1ccccc1S2 | -23.2
56 | CCc1cc2c(=O)c(-c3nc4ccccc4n3C)coc2c(CN2CCN(C)CC2)c1O | -4.19
